Data reported in a collection of fitness landscapes (doi:10.1126/science.1257360).
The list shows a part of the results.

B1: PhoQ; a variant is named by its letters at X, in order, P23837 (parent)
chain: MKKLLRLFFPLSLRVRFLLATAAVVLVLSLAYGMVALIGYSVSFDKTTFRLLRGESNLFYTLAKWENNKLHVELPENIDKQSPTMTLIYDENGQLLWAQRDVPWLMKMIQPDWLKSNGFHEIEADVNDTSLLLSGDHSIQQQLQEVREDDDDAEMTHSVAVNVYPATSRMPKLTIVVVDTIPVELKSSYMVWSWFIYVLSANLLLVIPLLWVAAWWSLRPIEALAKEVRELEEHNRELLNPATTRELTSLVRNLNRLLKSERERYDKYRTTLTDLTHSLKTPLXXLQXXLRSLRSEKMSVSDAEPVMLEQISRISQQIGYYLHRASMRGGTLLSRELHPVAPLLDNLTSALNKVYQRKGVNISLDISPEISFVGEQNDFVEVMGNVLDNACKYCLEFVEISARQTDEHLYIVVEDDGPGIPLSKREVIFDRGQRVDTLRPGQGVGLAVAREITEQYEGKIVAGESMLGGARMEVIFGRQHSAPKDE

Variants of: B1
Experiment: enrichment ratio after two sorts for PhoP signalling (ratio (wild type AVST 3.29)); higher = more functional
Settings: with PhoP (E. coli)

Variant	enrichment ratio
MPRV	≤ 0.25
GPIK	≤ 0.25
WKLE	≤ 0.25
HQAN	≤ 0.25
FGVS	≤ 0.25
TSGF	8.13
QKEA	≤ 0.25
GMFR	≤ 0.25
VFIC	≤ 0.25
GHTT	≤ 0.25
TCCA	6.15
YRGH	≤ 0.25
MIKF	≤ 0.25
KTVV	≤ 0.25
WPLK	≤ 0.25
VTNW	≤ 0.25
TVTY	≤ 0.25
LVNM	≤ 0.25
WWIF	≤ 0.25
IVLR	≤ 0.25
LCDN	≤ 0.25
TTNS	3.5
YTYG	≤ 0.25
NHEI	≤ 0.25
FNAF	≤ 0.25

Variant	enrichment ratio
DCKM	≤ 0.25
ECVG	≤ 0.25
IIHM	≤ 0.25
NGQE	≤ 0.25
IIER	≤ 0.25
TMAV	5.82
MFIF	≤ 0.25
EAWV	≤ 0.25
ATCY	5.66
HRNA	≤ 0.25
YWKN	≤ 0.25
GKTR	≤ 0.25
ITTH	≤ 0.25
RMKL	≤ 0.25
PREH	≤ 0.25
STWN	≤ 0.25
KLPL	≤ 0.25
VMVM	≤ 0.25
NYMQ	≤ 0.25
SGRN	≤ 0.25
IVRW	≤ 0.25
RFAL	≤ 0.25
QHPA	≤ 0.25
WRIN	≤ 0.25
IMSL	≤ 0.25

Variant	enrichment ratio
TQAH	13.3
NPRY	≤ 0.25
IVEK	≤ 0.25
SVID	≤ 0.25
WMMA	≤ 0.25
SEHP	≤ 0.25
RAIM	≤ 0.25
ERYG	≤ 0.25
QHCS	≤ 0.25
VDVK	≤ 0.25
MAWM	8.69
KCAH	≤ 0.25
RPKE	≤ 0.25
IKTD	≤ 0.25
MANS	≤ 0.25
RQKH	≤ 0.25
WLLY	≤ 0.25
WFFW	≤ 0.25
PKKD	≤ 0.25
ANGC	8.49
DAHW	≤ 0.25
LKFH	≤ 0.25
LDKD	≤ 0.25
PTCL	0.341
FHIS	≤ 0.25

Variant	enrichment ratio
RKFP	≤ 0.25
VMMC	≤ 0.25
GIMK	≤ 0.25
RPTK	≤ 0.25
EYGF	≤ 0.25
NLRF	≤ 0.25
FCPR	≤ 0.25
DMYC	≤ 0.25
MCKP	≤ 0.25
DLIS	≤ 0.25
VPWQ	≤ 0.25
FGEE	≤ 0.25
TGQE	24.5
GNEV	≤ 0.25
YFGY	≤ 0.25
KTGK	≤ 0.25
LPGD	≤ 0.25
HYEK	≤ 0.25
AEVR	1.77
RPCV	≤ 0.25
HHDN	≤ 0.25
GWYG	≤ 0.25
HWPI	≤ 0.25
FENK	≤ 0.25
PPHE	≤ 0.25

Variant	enrichment ratio
QDLF	≤ 0.25
PKDC	≤ 0.25
YCLG	8.9
WIPH	≤ 0.25
LQFF	≤ 0.25
GYVM	≤ 0.25
DWGR	≤ 0.25
TFRH	≤ 0.25
SFQI	≤ 0.25
DHMC	≤ 0.25
AQWN	≤ 0.25
IPPI	≤ 0.25
KICP	≤ 0.25
FRQP	≤ 0.25
AMGG	6.47
FSLY	3.99
RQFT	≤ 0.25
LEAA	≤ 0.25
YLVH	≤ 0.25
GILA	11.3
SGCA	6.95
YCSD	≤ 0.25
NQHP	≤ 0.25
PDER	≤ 0.25
GMKC	≤ 0.25

Variant	enrichment ratio
PTWS	≤ 0.25
NQEL	≤ 0.25
SQCL	12.1
ADFG	≤ 0.25
LWCS	≤ 0.25
KCWI	≤ 0.25
YGVC	≤ 0.25
FRNL	≤ 0.25
AHYR	≤ 0.25
SFMS	1.29
YYLR	≤ 0.25
EAKT	≤ 0.25
GPYL	≤ 0.25
FMRD	≤ 0.25
REGC	≤ 0.25
AHVP	≤ 0.25
HREC	≤ 0.25
VQIM	≤ 0.25
LMGN	≤ 0.25
DCDR	≤ 0.25
THPM	≤ 0.25
RIKP	≤ 0.25
KKQA	≤ 0.25
IQYA	≤ 0.25
PSTT	≤ 0.25

Variant	enrichment ratio
LREL	≤ 0.25
FSER	≤ 0.25
KPKK	≤ 0.25
LEHA	≤ 0.25
ANFI	≤ 0.25
SIYY	≤ 0.25
NRWM	≤ 0.25
EVTF	≤ 0.25
QTCV	≤ 0.25
TMTY	12.9
HLVP	≤ 0.25
ESRI	≤ 0.25
ICLR	≤ 0.25
ANLH	13
AMLS	2.42
LMSS	≤ 0.25
WVNV	≤ 0.25
GVHH	≤ 0.25
SFTL	1.44
RLIH	≤ 0.25
TCFY	≤ 0.25
LLQI	≤ 0.25
FQLM	1.74
PIQK	≤ 0.25
MNRE	≤ 0.25

Variant	enrichment ratio
RIGI	≤ 0.25
DAGD	≤ 0.25
EHGG	≤ 0.25
RHRN	≤ 0.25
RLEE	≤ 0.25
DTVF	≤ 0.25
VAMM	12.8
KCYL	≤ 0.25
NMRL	≤ 0.25
RHEP	≤ 0.25
KFVF	≤ 0.25
GCKR	≤ 0.25
FIHP	≤ 0.25
IWIN	≤ 0.25
ICIP	≤ 0.25
NTIT	≤ 0.25
PKPQ	≤ 0.25
DPRC	≤ 0.25
FMHC	≤ 0.25
KVDQ	≤ 0.25
